# This list was built around the results that the source calls inconclusive (neither active nor inactive); the mix of calls is not that of the screen. For some of these results: A potency beside an inconclusive call is a rough fit, not a confirmed value. Active and inactive are the calls of the source. Unless noted, calls follow the shape of the dose curve; as a rule, active = well fitted curve in either direction with a large enough effect (not every such curve was filed as active); inconclusive = small, poorly fitted or top-dose-only effect, or another doubt; inactive = flat fitted curve, though single readings scatter.
# Tests used:
# [1] = AP1 Signaling Pathway (AID 357); details: ME-180 AP-1-bla reporter, EGF-induced, beta-lactamase ratio, 5 h; at 17.2 µM (top of the series) unless noted; also: top concentration of the series differs between compounds; % is scaled to controls: 0 for no effect and ±100 for the full control effect
# How it was run: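 Modulation of EGF-driven AP-1 transcription was assessed with a beta-lactamase reporter in ME-180 cells. Compound and EC50 EGF were co-incubated 5 hours at 37 °C before 2.5-hour CCF4 loading at room temperature and dual-emission reading.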
# [2] = target: Cytochrome P450 1A2 (Homo sapiens) (UniProt P05177); assay: p450-cyp1a2 (AID 410; calls by dose curve; also: potency is read from the fitted curve at half-maximal effect;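 as to activity change, negative = inhibition: top concentration of the series differs between compounds; -100% = full effect of reference inhibitor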)
# How it was run: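 Luminescent demethylation readout: Luciferin-ME (100uM, equal to Km) turned over by 20nM CYP1A2 for 60 min at room temperature after NADPH regeneration addition, following 10 min compound preincubation. Normalization used 57 uM furafylline as full inhibition.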
# [3] = qHTS Assay for Identification of Small Molecule Agonists for Hypoxia Response Element Signaling Pathway (AID 914; active = well fitted activation curve with a large enough effect in the signal ratio, with a control signal flat, not every such curve was filed as active; inconclusive = small, poorly fitted or top-dose-only effect, or effect the other way, or a change in a side signal; the % refers to the signal ratio; also: potency is read from the fitted curve at half-maximal effect; as to activation: top concentration of the series differs between compounds; % of control where 0% means no effect); details: ME-180 (cervical carcinoma) HRE-bla reporter, beta-lactamase ratio, CoCl2, 17 h; activation: active compounds read high
# How it was run: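 HRE-bla ME-180 assay for agonist-like enhancement of an EC50 CoCl2 stimulus: 17 h at 37 degrees Celsius, CCF4 for 2.5 h, ratiometric 460/530 nm signal converted to %Activity and fitted to AC50.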
# [4] = NFAT Signaling Pathway (AID 444); details: Jurkat NFAT-bla M1, carbachol, beta-lactamase ratio, 5 h; at 17.2 µM (top of the series) unless noted;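 also: carbachol stimulus at about its EC50 of 1 µM final; % is scaled to controls: 0 for no effect and ±100 for the full control effect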
# How it was run: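 Jurkat cells with NFAT-driven β-lactamase reporter and co-expressed M1 receptor, stimulated with carbachol (final 1 uM, ~EC50), compound titration, 5 h at 37 °C. CCF4 loaded 1 h at RT; 460/530 nm ratio gave %activity and AC50.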
# [5] = target: 3',5'-cyclic-AMP phosphodiesterase 4B (Homo sapiens) (UniProt Q07343); assay: qHTS Assay for Inhibitors of PDE-IV (AID 607; active = well fitted activation curve with a large enough effect in the main read-out, with a control signal flat, not every such curve was filed as active; inconclusive = small, poorly fitted or top-dose-only effect, or effect the other way, or a change in a side signal; also: % of control where 0% means no effect); details: HEK293 ACTOne CNG channel cells, membrane potential fluorescence; activation (PDE inhibition): at 22.9 µM (top of the series)
# How it was run: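 HEK293 ACTOne cells with CNG channel (1000/well), endogenous PDE4; membrane potential dye, compounds up to 22.9 uM final. Fluorescence Ex 535/Em 590; RO 20-1724 (100 uM final) as reference.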
# Tags tell the direction and shape of the fitted curve or compound fluorescence and quenching.
# UniProt P05177, sequence (P05177 whole entry, looked up): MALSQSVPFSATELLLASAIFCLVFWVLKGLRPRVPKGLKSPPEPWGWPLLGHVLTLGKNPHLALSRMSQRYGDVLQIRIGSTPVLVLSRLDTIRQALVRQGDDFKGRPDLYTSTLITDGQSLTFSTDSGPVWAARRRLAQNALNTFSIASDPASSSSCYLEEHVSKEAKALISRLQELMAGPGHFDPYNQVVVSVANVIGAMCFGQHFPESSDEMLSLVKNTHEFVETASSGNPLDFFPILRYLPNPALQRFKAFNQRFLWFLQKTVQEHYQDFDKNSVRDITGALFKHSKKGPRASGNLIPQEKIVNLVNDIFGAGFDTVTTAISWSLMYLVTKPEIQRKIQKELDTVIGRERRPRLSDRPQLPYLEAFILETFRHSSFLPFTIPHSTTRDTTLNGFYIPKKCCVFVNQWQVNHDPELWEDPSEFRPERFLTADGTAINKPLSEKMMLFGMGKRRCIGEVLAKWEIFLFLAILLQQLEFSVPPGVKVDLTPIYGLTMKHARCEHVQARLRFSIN
# UniProt Q07343, sequence (Q07343 whole entry, looked up): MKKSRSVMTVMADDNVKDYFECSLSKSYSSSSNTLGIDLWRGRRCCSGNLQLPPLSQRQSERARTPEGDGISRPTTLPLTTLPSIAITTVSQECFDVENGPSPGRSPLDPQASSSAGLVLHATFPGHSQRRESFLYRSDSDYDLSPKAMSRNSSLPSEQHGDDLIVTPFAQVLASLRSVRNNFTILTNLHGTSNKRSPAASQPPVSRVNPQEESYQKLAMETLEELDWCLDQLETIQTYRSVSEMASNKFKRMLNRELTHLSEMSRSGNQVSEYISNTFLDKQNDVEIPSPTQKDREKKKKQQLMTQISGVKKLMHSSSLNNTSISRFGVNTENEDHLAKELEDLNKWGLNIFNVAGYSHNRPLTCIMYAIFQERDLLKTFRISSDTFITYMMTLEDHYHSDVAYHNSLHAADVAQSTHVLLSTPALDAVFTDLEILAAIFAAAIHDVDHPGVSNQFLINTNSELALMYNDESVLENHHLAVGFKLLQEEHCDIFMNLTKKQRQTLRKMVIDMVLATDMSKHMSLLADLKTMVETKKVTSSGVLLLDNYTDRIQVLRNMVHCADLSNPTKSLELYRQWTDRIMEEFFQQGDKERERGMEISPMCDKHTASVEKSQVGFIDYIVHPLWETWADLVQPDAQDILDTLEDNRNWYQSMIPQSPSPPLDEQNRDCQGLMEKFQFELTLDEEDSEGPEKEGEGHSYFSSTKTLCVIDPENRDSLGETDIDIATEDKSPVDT
structure (smiles),measurement,setting,value
CC1=NNC(=S)NCCCN2CCN(CCCNC(=S)NN=C(C)C=NNC(=S)NCCCN3CCN(CCCNC(=S)NN=C1)CC3)CC2,"activity change, negative = inhibition",[1],inactive: 4.7% [at 7.69 µM]
same,Potency,[2],inconclusive: 3.16 µM [decreasing]
same,activation,[3],inconclusive: -8.88%
Oc1ccc(CNCc2ccccc2)c2cccnc12,"activity change, negative = inhibition",[1],inconclusive: 5.58% [activator] [at 7.69 µM]
same,Potency,[2],inconclusive: 5.01 µM [decreasing]
same,Potency,[3],"inconclusive: 5.01 µM [inhibitor, single point]"
O=C(c1cnccn1)N1CCC2(CCCN(Cc3ccncc3)C2)CC1,"activity change, negative = inhibition",[1],inactive: -12.8% [at 7.69 µM]
same,"activity change, negative = inhibition",[4],inconclusive: -59% [inhibitor] [at 7.69 µM]
COCC(=O)N1CCC2(CC1)CCN(c1ncccn1)CC2,"activity change, negative = inhibition",[1],inconclusive: 2.6% [activator] [at 7.69 µM]
same,Potency,[2],inactive
same,Potency,[5],inactive
O=C1CC(N(O)C2CC(=O)N(Cc3ccccc3)C2=O)C(=O)N1Cc1ccccc1 (stereo not drawn),"activity change, negative = inhibition",[1],inconclusive: -33.8% [inhibitor]
same,"activity change, negative = inhibition",[4],inconclusive: -90.3% [inhibitor]
